± gives the standard error. Variants at the floor of the assay are shown more often than the library holds them.
B1: glmS ribozyme (parent)
chain: AUAAAAGCGCCAGAACUACAGAAAUGUAGUUGACGAGGAGGAGGUUUAUCGAAUUUUCGGCGGAUGCCUCCAAA

What was measured:
Conditions in all cases: with glucosamine-6-phosphate
glucosamine-6-phosphate [1] = variants of: B1; assay: self-cleavage kobs at 40 uM GlcN6P; higher = faster cleavage; RNA array
Method in brief: (§1)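 kcat and KM were obtained from weighted Michaelis–Menten fits across concentrations of kobs values. Those came from one- or two-exponential decay fits to per-tile medians normalised to baseline and to non-cleaving reference variants. The variants were barcoded ribozymes transcribed in situ by E. coli RNA polymerase on sequenced MiSeq chips and tracked through a hybridised Cy3 probe at 37 °C, with 40 μM to 10 mM glucosamine-6-phosphate in HEPES/KCl/Mg(OAc)2 buffer flowed in.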

glucosamine-6-phosphate [2] = variants of: B1; assay: self-cleavage kobs at 640 uM GlcN6P; higher = faster cleavage; RNA array
Method in brief: as §1

glucosamine-6-phosphate [3] = variants of: B1; assay: self-cleavage kobs at 160 uM GlcN6P; higher = faster cleavage; RNA array
Method in brief: as §1

glucosamine-6-phosphate [4] = variants of: B1; assay: self-cleavage kobs at 2500 uM GlcN6P; higher = faster cleavage; RNA array
Method in brief: as §1

glucosamine-6-phosphate [5] = variants of: B1; assay: self-cleavage kobs at 10000 uM GlcN6P; higher = faster cleavage; RNA array
Method in brief: as §1

Variant | self-cleavage kobs at 40 uM GlcN6P (glucosamine-6-phosphate [1]) [s⁻¹] | self-cleavage kobs at 640 uM GlcN6P (glucosamine-6-phosphate [2]) [s⁻¹] | self-cleavage kobs at 160 uM GlcN6P (glucosamine-6-phosphate [3]) [s⁻¹] | self-cleavage kobs at 2500 uM GlcN6P (glucosamine-6-phosphate [4]) [s⁻¹] | self-cleavage kobs at 10000 uM GlcN6P (glucosamine-6-phosphate [5]) [s⁻¹]
G41A C61G C71U | < 1e-05 | – | – | – | –
G41A C67G C70U | 4.65e-05 ± 2e-05 | – | – | – | –
G41A C70G | 4.43e-05 ± 8e-06 | 0.000156 ± 1.6e-05 | 6.45e-05 ± 1.1e-05 | 0.000332 ± 4e-05 | –
G41A G43U A53G C71G | < 1e-05 | – | – | < 1e-05 | –
G41A G44C | < 1e-05 | < 1e-05 | – | – | –
G41A U45G | 2.84e-05 ± 1.3e-05 | 0.000144 ± 2.4e-05 | 3e-05 ± 1.3e-05 | 0.000565 ± 0.0001 | 0.000304 ± 5.2e-05
G41A U49C U56A | < 1e-05 | – | – | – | –
G41A U57A G63U | < 1e-05 | – | – | – | < 1e-05
G41C C68U | < 1e-05 | < 1e-05 | – | – | –
G41C G43C | < 1e-05 | < 1e-05 | < 1e-05 | – | < 1e-05
G41C G51A | < 1e-05 | – | – | – | < 1e-05
G41C U47A C50U | < 1e-05 | – | – | – | < 1e-05
G41C U69G | < 1e-05 | < 1e-05 | – | – | < 1e-05
G41U A42U C58G G60U | < 1e-05 | – | – | – | –
G41U A48C U65G | < 1e-05 | – | – | – | –
G41U G44U | < 1e-05 | < 1e-05 | < 1e-05 | < 1e-05 | < 1e-05
G41U G51U | < 1e-05 | < 1e-05 | < 1e-05 | < 1e-05 | < 1e-05
G41U G60A | < 1e-05 | < 1e-05 | – | – | –
G41U G62A | < 1e-05 | < 1e-05 | – | < 1e-05 | < 1e-05
G41U U49A | < 1e-05 | < 1e-05 | – | – | < 1e-05
A42C A48G C61G | < 1e-05 | – | – | – | < 1e-05
A42C C50G | < 1e-05 | – | – | – | < 1e-05
A42C C61U C71A | < 1e-05 | – | – | – | –

Variant | self-cleavage kobs at 40 uM GlcN6P (glucosamine-6-phosphate [1]) [s⁻¹] | self-cleavage kobs at 640 uM GlcN6P (glucosamine-6-phosphate [2]) [s⁻¹] | self-cleavage kobs at 160 uM GlcN6P (glucosamine-6-phosphate [3]) [s⁻¹] | self-cleavage kobs at 2500 uM GlcN6P (glucosamine-6-phosphate [4]) [s⁻¹] | self-cleavage kobs at 10000 uM GlcN6P (glucosamine-6-phosphate [5]) [s⁻¹]
A42C C68U | < 1e-05 | – | < 1e-05 | – | –
A42C C70G | < 1e-05 | – | < 1e-05 | – | –
A42C G43U A48G G62C C67A C70G | < 1e-05 | < 1e-05 | – | < 1e-05 | –
A42C G51U | < 1e-05 | < 1e-05 | < 1e-05 | – | –
A42C G59A | < 1e-05 | – | < 1e-05 | < 1e-05 | –
A42C G59C C67G | < 1e-05 | – | – | < 1e-05 | < 1e-05
A42C G59U | < 1e-05 | < 1e-05 | – | < 1e-05 | –
A42C U49A | < 1e-05 | < 1e-05 | < 1e-05 | < 1e-05 | –
A42C U54C | < 1e-05 | < 1e-05 | < 1e-05 | – | –
A42G A64U | < 1e-05 | – | – | – | –
A42G C61A | < 1e-05 | – | – | < 1e-05 | < 1e-05
A42G C68U | 0.000563 ± 7.3e-05 | 0.00237 ± 0.00041 | 0.000735 ± 0.00016 | – | 0.0168 ± 0.0034
A42G G43A | < 1e-05 | 5.32e-05 ± 1.5e-05 | – | 8.7e-05 ± 2.3e-05 | 0.000143 ± 2.8e-05
A42G G51C | < 1e-05 | < 1e-05 | – | – | < 1e-05
A42G G59U | < 1e-05 | – | – | – | –
A42G G60C | < 1e-05 | – | – | – | < 1e-05
A42G G60U | < 1e-05 | < 1e-05 | < 1e-05 | < 1e-05 | –
A42G G63U | < 1e-05 | < 1e-05 | < 1e-05 | < 1e-05 | –
A42G G66A U69A | 0.000356 ± 0.0001 | – | – | – | –
A42G U55A G63C | < 1e-05 | – | – | – | –
A42G U55G G59C | < 1e-05 | – | – | – | –
A42G U56A G60U | < 1e-05 | – | – | < 1e-05 | < 1e-05
A42G U57G | < 1e-05 | – | < 1e-05 | 4.17e-05 ± 1.4e-05 | 4.59e-05 ± 1.4e-05

Variant | self-cleavage kobs at 40 uM GlcN6P (glucosamine-6-phosphate [1]) [s⁻¹] | self-cleavage kobs at 640 uM GlcN6P (glucosamine-6-phosphate [2]) [s⁻¹] | self-cleavage kobs at 160 uM GlcN6P (glucosamine-6-phosphate [3]) [s⁻¹] | self-cleavage kobs at 2500 uM GlcN6P (glucosamine-6-phosphate [4]) [s⁻¹] | self-cleavage kobs at 10000 uM GlcN6P (glucosamine-6-phosphate [5]) [s⁻¹]
A42U A48U | < 1e-05 | < 1e-05 | – | < 1e-05 | –
A42U C71G | < 1e-05 | – | – | – | –
A42U G63C | < 1e-05 | < 1e-05 | < 1e-05 | < 1e-05 | < 1e-05
G43A A52C | < 1e-05 | – | – | < 1e-05 | –
G43A G62U | < 1e-05 | – | < 1e-05 | < 1e-05 | –
G43A U47A | < 1e-05 | – | < 1e-05 | – | –
G43A U65A | < 1e-05 | < 1e-05 | < 1e-05 | – | –
G43C C50U | < 1e-05 | < 1e-05 | < 1e-05 | < 1e-05 | < 1e-05
G43C C61G | < 1e-05 | < 1e-05 | < 1e-05 | < 1e-05 | < 1e-05
G43C G51A | < 1e-05 | – | < 1e-05 | < 1e-05 | < 1e-05
G43C G60U | < 1e-05 | < 1e-05 | < 1e-05 | < 1e-05 | < 1e-05
G43C U45G | 8.35e-05 ± 1.2e-05 | 0.000694 ± 0.00012 | 0.000135 ± 2.3e-05 | 0.00109 ± 0.00024 | 0.00211 ± 0.00027
G43U C70A | < 1e-05 | < 1e-05 | < 1e-05 | < 1e-05 | < 1e-05
G43U G44C | < 1e-05 | < 1e-05 | – | < 1e-05 | < 1e-05
G43U G51A U57G | < 1e-05 | – | – | < 1e-05 | < 1e-05
G43U G51C | < 1e-05 | < 1e-05 | – | < 1e-05 | < 1e-05
G43U G60A | < 1e-05 | < 1e-05 | < 1e-05 | < 1e-05 | < 1e-05
G43U U47C | < 1e-05 | < 1e-05 | – | < 1e-05 | < 1e-05
G43U U49A | < 1e-05 | – | – | – | < 1e-05
G43U U56G | < 1e-05 | – | < 1e-05 | – | –
G44A C50A | < 1e-05 | < 1e-05 | – | < 1e-05 | < 1e-05
G44A C50U | < 1e-05 | < 1e-05 | – | < 1e-05 | < 1e-05
G44A C58A | < 1e-05 | < 1e-05 | < 1e-05 | – | –

Variant | self-cleavage kobs at 40 uM GlcN6P (glucosamine-6-phosphate [1]) [s⁻¹] | self-cleavage kobs at 640 uM GlcN6P (glucosamine-6-phosphate [2]) [s⁻¹] | self-cleavage kobs at 160 uM GlcN6P (glucosamine-6-phosphate [3]) [s⁻¹] | self-cleavage kobs at 2500 uM GlcN6P (glucosamine-6-phosphate [4]) [s⁻¹] | self-cleavage kobs at 10000 uM GlcN6P (glucosamine-6-phosphate [5]) [s⁻¹]
G44A C58A C70U | < 1e-05 | < 1e-05 | < 1e-05 | – | –
G44A C67U | 0.000707 ± 7e-05 | – | – | – | –
G44A G60U | < 1e-05 | < 1e-05 | – | < 1e-05 | < 1e-05
G44A G60U A64G U69C | < 1e-05 | – | – | – | –
G44A U56A C58G | < 1e-05 | – | – | – | < 1e-05
G44C C50G U54C | < 1e-05 | – | – | – | –
G44C C58G | < 1e-05 | < 1e-05 | – | < 1e-05 | < 1e-05
G44C G51A A53C | < 1e-05 | – | – | – | –
G44C G62U | < 1e-05 | < 1e-05 | < 1e-05 | < 1e-05 | < 1e-05
G44C G63C | < 1e-05 | < 1e-05 | – | < 1e-05 | < 1e-05
G44C U45A U46G | < 1e-05 | < 1e-05 | – | – | 3.99e-05 ± 2e-05
G44C U49G C58U | < 1e-05 | – | – | – | < 1e-05
G44U A48C | < 1e-05 | < 1e-05 | < 1e-05 | – | < 1e-05
G44U A48U | < 1e-05 | < 1e-05 | < 1e-05 | < 1e-05 | –
G44U A48U C68U | < 1e-05 | – | – | – | < 1e-05
G44U A53C A64G | < 1e-05 | – | – | – | < 1e-05
G44U C71U | < 1e-05 | – | – | – | –
G44U G60C | < 1e-05 | < 1e-05 | < 1e-05 | < 1e-05 | < 1e-05
G44U G62U | < 1e-05 | < 1e-05 | < 1e-05 | < 1e-05 | < 1e-05
G44U G63A | < 1e-05 | < 1e-05 | < 1e-05 | < 1e-05 | < 1e-05
